Measurements from article PMC4075450.
Results are given in words; binding and its absence hold for the method and conditions named. For some of these results: In cells and extracts the contact can be indirect. Some binding calls cover weakened binding; strength is not graded here. Sequences can lack the tags named with a protein. One block for each binder: values may come before it.

By UniProt entry, the sequences of proteins in these tests, tags left out.
UniProt Q8S307: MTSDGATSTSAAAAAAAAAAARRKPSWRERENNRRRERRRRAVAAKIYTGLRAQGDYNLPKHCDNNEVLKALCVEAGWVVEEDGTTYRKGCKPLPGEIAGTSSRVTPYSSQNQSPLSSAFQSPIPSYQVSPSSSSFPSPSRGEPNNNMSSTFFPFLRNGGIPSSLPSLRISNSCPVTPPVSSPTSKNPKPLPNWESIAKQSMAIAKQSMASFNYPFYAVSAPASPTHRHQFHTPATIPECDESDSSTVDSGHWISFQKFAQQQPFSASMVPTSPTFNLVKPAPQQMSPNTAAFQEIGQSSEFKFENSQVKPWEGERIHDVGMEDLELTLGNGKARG

Columns and labels:
[1] = biological target: T1, ARF6 (auxin response factor 6), yeast two-hybrid fusion (Arabidopsis thaliana) (UniProt Q9ZTX8); test: two-hybrid; yeast; clones grown on synthetic dropout medium without histidine (−HIS) plus 1 mM 3AT (1 or 5 mM 3AT for the ARF6 fragments); activation domain and DNA binding domain fusions
T1 sequence: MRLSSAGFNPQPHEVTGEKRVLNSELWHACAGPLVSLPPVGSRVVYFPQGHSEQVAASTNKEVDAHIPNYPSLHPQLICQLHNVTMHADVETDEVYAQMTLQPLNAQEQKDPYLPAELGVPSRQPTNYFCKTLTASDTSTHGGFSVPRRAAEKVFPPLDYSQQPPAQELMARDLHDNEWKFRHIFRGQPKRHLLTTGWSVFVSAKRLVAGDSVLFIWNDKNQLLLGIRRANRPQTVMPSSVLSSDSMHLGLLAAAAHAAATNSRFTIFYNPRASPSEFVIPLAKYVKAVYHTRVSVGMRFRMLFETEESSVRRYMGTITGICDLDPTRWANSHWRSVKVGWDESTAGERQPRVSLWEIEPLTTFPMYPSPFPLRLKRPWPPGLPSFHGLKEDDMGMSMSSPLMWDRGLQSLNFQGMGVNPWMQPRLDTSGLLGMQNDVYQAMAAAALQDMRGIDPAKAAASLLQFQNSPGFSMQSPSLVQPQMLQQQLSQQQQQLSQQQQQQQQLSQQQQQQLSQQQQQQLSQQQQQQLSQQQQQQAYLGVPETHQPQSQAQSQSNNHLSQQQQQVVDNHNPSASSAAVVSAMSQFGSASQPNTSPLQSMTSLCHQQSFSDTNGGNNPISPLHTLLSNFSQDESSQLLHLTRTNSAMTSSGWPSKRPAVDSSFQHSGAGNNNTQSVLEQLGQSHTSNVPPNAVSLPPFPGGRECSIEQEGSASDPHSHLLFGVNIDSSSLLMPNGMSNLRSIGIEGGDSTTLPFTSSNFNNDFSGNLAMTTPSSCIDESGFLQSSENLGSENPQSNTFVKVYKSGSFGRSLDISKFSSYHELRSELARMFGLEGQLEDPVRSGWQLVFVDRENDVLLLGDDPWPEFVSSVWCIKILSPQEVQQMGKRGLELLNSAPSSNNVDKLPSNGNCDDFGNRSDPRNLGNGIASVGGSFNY

[2] = biological target: T2, PIF4-YFP, in transgenic Arabidopsis plants (Arabidopsis thaliana) (UniProt Q8W2F3); test: co-IP; transgenic Arabidopsis plants expressing both fusion proteins from the 35S promoter, treated with 100 nM BL for 4 hr; IP with anti-GFP on protein A/G agarose beads, blot with anti-Myc; IP buffer 50 mM Tris-Cl pH7.5, 1 mM EDTA, 75 mM NaCl, 0.1% Triton X-100, 5% Glycerol
T2 sequence: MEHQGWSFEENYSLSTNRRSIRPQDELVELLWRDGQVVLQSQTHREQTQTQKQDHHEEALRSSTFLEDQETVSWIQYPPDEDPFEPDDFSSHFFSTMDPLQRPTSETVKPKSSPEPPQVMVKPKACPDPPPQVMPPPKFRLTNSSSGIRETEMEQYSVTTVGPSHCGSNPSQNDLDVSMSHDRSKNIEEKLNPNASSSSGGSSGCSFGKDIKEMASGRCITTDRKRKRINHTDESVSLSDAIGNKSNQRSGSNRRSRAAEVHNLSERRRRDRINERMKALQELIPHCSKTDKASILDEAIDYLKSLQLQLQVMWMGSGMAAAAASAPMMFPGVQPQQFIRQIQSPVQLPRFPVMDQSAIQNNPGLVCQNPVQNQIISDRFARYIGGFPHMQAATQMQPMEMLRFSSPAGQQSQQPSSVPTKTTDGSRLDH

[3] = biological target: BZR1-YFP, in transgenic Arabidopsis plants (Arabidopsis thaliana) (UniProt Q8S307); test: as above
[4] = biological target: T3, PIF4-GFP, in Arabidopsis mesophyll protoplasts (Arabidopsis thaliana) (UniProt Q8W2F3); test: co-IP; Arabidopsis mesophyll protoplasts transfected and incubated overnight; IP with anti-GFP, blots with anti-Myc or anti-GFP; ARF6-Myc with PIF4-GFP also with co-transfected bzr1-1D-Myc (interaction increased)
T3 sequence: T2 sequence

[5] = biological target: T4, RGA-GFP, in Arabidopsis mesophyll protoplasts (Arabidopsis thaliana) (UniProt Q9SLH3); test: as above
T4 sequence: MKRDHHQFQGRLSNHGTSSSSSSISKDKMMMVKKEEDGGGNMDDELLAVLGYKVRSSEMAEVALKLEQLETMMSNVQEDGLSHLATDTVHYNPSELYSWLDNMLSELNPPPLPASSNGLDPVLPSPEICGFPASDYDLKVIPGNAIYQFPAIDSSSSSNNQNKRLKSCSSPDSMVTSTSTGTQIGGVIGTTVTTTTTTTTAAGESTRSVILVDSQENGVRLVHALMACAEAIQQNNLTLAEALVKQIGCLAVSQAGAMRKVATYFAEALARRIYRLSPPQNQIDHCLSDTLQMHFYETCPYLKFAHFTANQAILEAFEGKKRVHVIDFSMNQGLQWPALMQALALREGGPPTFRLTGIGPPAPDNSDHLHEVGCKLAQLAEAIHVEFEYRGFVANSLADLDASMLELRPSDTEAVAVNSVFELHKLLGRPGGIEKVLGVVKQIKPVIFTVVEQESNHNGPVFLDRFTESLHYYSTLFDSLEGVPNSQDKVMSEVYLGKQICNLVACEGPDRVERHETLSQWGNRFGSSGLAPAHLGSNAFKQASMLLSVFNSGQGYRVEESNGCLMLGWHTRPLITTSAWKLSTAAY

[6] = biological target: T3, PIF4-GFP, in Arabidopsis mesophyll protoplasts (Arabidopsis thaliana); test: co-IP; Arabidopsis mesophyll protoplasts transfected to express ARF6-Myc alone or with PIF4-GFP and rga-Δ17-Myc; IP with anti-GFP, blots with anti-Myc or anti-GFP
[7] = biological target: T5, ARF8 (auxin response factor 8), yeast two-hybrid fusion (Arabidopsis thaliana) (UniProt Q9FGV1); test: two-hybrid; yeast; clones grown on synthetic dropout medium without histidine (−HIS) plus 1 mM 3AT (1 or 5 mM 3AT for the ARF6 fragments); activation domain and DNA binding domain fusions
T5 sequence: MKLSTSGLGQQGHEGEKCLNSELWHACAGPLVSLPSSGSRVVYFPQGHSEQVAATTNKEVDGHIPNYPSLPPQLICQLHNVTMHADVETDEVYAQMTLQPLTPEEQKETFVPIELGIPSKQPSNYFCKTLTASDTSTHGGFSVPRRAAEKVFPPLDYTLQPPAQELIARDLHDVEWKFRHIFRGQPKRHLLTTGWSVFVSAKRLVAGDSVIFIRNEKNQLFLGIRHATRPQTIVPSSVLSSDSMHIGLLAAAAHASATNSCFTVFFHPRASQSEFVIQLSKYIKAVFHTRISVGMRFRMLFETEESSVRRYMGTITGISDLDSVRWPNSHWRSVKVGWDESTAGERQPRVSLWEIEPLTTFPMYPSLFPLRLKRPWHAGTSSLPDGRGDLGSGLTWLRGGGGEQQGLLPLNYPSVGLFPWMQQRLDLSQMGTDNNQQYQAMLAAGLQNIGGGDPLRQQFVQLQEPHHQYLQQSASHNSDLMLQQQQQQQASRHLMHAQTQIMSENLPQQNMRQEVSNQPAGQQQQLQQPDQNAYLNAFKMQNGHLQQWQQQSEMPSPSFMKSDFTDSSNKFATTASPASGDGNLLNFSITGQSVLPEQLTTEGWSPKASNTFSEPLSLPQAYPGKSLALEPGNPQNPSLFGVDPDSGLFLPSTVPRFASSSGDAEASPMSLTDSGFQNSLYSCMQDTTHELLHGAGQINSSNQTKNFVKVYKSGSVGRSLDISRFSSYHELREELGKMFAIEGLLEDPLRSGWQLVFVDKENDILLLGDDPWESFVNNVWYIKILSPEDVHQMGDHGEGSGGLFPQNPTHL

binding [1]: binds
Binder: RAAEVHNLSERRRRDRINERMKALQELIPHCSKTDKASILDEAIDYLKSL (domain or fragment, UniProt Q8W2F3 257-306) [bHLH domain of PIF4, yeast two-hybrid fusion]

binding [1]: binds
B1: HBI1, yeast two-hybrid fusion (protein, UniProt Q9ZPW3 1-337)
chain: MLEGLVSQESLSLNSMDMSVLERLKWVQQQQQQLQQVVSHSSNNSPELLQILQFHGSNNDELLESSFSQFQMLGSGFGPNYNMGFGPPHESISRTSSCHMEPVDTMEVLLKTGEETRAVALKNKRKPEVKTREEQKTEKKIKVEAETESSMKGKSNMGNTEASSDTSKETSKGASENQKLDYIHVRARRGQATDRHSLAERARREKISKKMKYLQDIVPGCNKVTGKAGMLDEIINYVQCLQRQVEFLSMKLAVLNPELELAVEDVSVKQFQAYFTNVVASKQSIMVDVPLFPLDQQGSLDLSAINPNQTTSIEAPSGSWETQSQSLYNTSSLGFHY

binding [1]: binds
B2: BEE2, yeast two-hybrid fusion (protein, UniProt Q93VJ4 1-304)
chain: MDLSVLDRLKWLQQQQMVSPEFLQILGSDGREELKRVESYLGNNNDELQSFRHFPEFGPDYDTTDGCISRTSSFHMEPVKNNGHSRAITLQNKRKPEGKTEKREKKKIKAEDETEPSMKGKSNMSNTETSSEIQKPDYIHVRARRGEATDRHSLAERARREKISKKMKCLQDIVPGCNKVTGKAGMLDEIINYVQSLQQQVEFLSMKLSVINPELECHIDDLSAKQFQAYFTGPPEGDSKQSIMADFRSFPLHQQGSLDYSVINSDHTTSLGAKDHTSSSWETHSQCLYNSLRTDSVSNFFSLK

binding [2]: binds
binding [3]: binds
B3: ARF6-Myc, in transgenic Arabidopsis plants (protein, UniProt Q9ZTX8 1-935)
chain: T1 sequence

binding [4]: binds
binding [5]: binds
binding [6]: binds
B4: ARF6-Myc, in Arabidopsis mesophyll protoplasts (protein, UniProt Q9ZTX8 1-935)
chain: T1 sequence

binding [1]: binds
binding [7]: binds
B5: IAA3, yeast two-hybrid fusion (protein, UniProt Q38822 1-189)
chain: MDEFVNLKETELRLGLPGTDNVCEAKERVSCCNNNNKRVLSTDTEKEIESSSRKTETSPPRKAQIVGWPPVRSYRKNNIQSKKNESEHEGQGIYVKVSMDGAPYLRKIDLSCYKGYSELLKALEVMFKFSVGEYFERDGYKGSDFVPTYEDKDGDWMLIGDVPWEMFICTCKRLRIMKGSEAKGLGCGV
